# Source: the supplement of paper PMC8728848
# This is one part of the list.
# B1: CFEM-PPl (Pichia pastoris), F2QPV1 (protein)
# chain: AVATPPACLLACAAEVVKESSDCDALNNIQCICENEGSAIHACLESTCPDGLSSTALQSFEDVCESVGTEANLDE
# Columns and labels:
# Test in all cases: glycan array binding signal (z-score within array); higher = stronger binding
# Details in all cases: glycan notation: IUPAC condensed, linker removed
# [1] = biological target: Neu5Ac(a2-3)Gal(b1-4)GlcNAc(b1-3)[Neu5Ac(a2-3)Gal(b1-4)GlcNAc(b1-6)]GalNAc
# Method in brief: (§1)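 The binding signal is a Z-score computed within each array and averaged over linkers. Arrays of the same protein sequence at different concentrations or buffers were also averaged together. Data originate from 3228 arrays in the Consortium for Functional Glycomics database, kept only where the protein sequence was available.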
# [2] = biological target: Neu5Ac(a2-3)Gal(b1-4)GlcNAc(b1-6)GalNAc
# Method in brief: as §1
# [3] = biological target: Neu5Ac(a2-3)Gal(b1-4)GlcNAc(b1-6)[Gal(b1-3)]GalNAc
# Method in brief: as §1
# [4] = biological target: Neu5Ac(a2-3)Gal(b1-4)GlcNAc(b1-6)[Neu5Ac(a2-3)Gal(b1-3)]GalNAc
# Method in brief: as §1
# [5] = biological target: Neu5Ac(a2-3)Gal(b1-4)GlcNAc6S
# Method in brief: as §1
# [6] = biological target: Neu5Ac(a2-3)Gal(b1-4)[Fuc(a1-3)]GlcNAc
# Method in brief: as §1
# [7] = biological target: Neu5Ac(a2-3)Gal(b1-4)[Fuc(a1-3)]GlcNAc(b1-2)Man
# Method in brief: as §1
# [8] = biological target: Neu5Ac(a2-3)Gal(b1-4)[Fuc(a1-3)]GlcNAc(b1-3)Gal
# Method in brief: as §1
# [9] = biological target: Neu5Ac(a2-3)Gal(b1-4)[Fuc(a1-3)]GlcNAc(b1-3)Gal(b1-4)GlcNAc
# Method in brief: as §1
# [10] = biological target: Neu5Ac(a2-3)Gal(b1-4)[Fuc(a1-3)]GlcNAc(b1-3)Gal(b1-4)[Fuc(a1-3)]GlcNAc(b1-3)Gal(b1-4)[Fuc(a1-3)]GlcNAc
# Method in brief: as §1
# [11] = biological target: Neu5Ac(a2-3)Gal(b1-4)[Fuc(a1-3)]GlcNAc(b1-3)GalNAc
# Method in brief: as §1
# [12] = biological target: Neu5Ac(a2-3)Gal(b1-4)[Fuc(a1-3)]GlcNAc(b1-6)[Gal(b1-3)]GalNAc
# Method in brief: as §1
# [13] = biological target: Neu5Ac(a2-3)Gal(b1-4)[Fuc(a1-3)]GlcNAc(b1-6)[Neu5Ac(a2-3)Gal(b1-3)]GalNAc
# Method in brief: as §1
# [14] = biological target: Neu5Ac(a2-3)Gal(b1-4)[Fuc(a1-3)]GlcNAc6S
# Method in brief: as §1
# [15] = biological target: Neu5Ac(a2-3)Gal6S(b1-4)GlcNAc
# Method in brief: as §1
# [16] = biological target: Neu5Ac(a2-3)Gal6S(b1-4)[Fuc(a1-3)]GlcNAc
# Method in brief: as §1
# [17] = biological target: Neu5Ac(a2-3)GalNAc
# Method in brief: as §1
# [18] = biological target: Neu5Ac(a2-3)GalNAc(b1-4)GlcNAc
# Method in brief: as §1
# [19] = biological target: Neu5Ac(a2-3)[GalNAc(b1-4)]Gal(b1-4)Glc
# Method in brief: as §1
# [20] = biological target: Neu5Ac(a2-3)[GalNAc(b1-4)]Gal(b1-4)GlcNAc
# Method in brief: as §1
# [21] = biological target: Neu5Ac(a2-3)[GalNAc(b1-4)]Gal(b1-4)GlcNAc(b1-3)GalNAc
# Method in brief: as §1
# [22] = biological target: Neu5Ac(a2-3)[Neu5Ac(a2-6)]GalNAc
# Method in brief: as §1
# [23] = biological target: Neu5Ac(a2-6)Gal
# Method in brief: as §1
# [24] = biological target: Neu5Ac(a2-6)Gal(b1-3)GlcNAc(b1-3)[Gal(b1-4)GlcNAc(b1-6)]Gal(b1-4)Glc
# Method in brief: as §1
# [25] = biological target: Neu5Ac(a2-6)Gal(b1-4)Glc
# Method in brief: as §1
# [26] = biological target: Neu5Ac(a2-6)Gal(b1-4)GlcNAc
# Method in brief: as §1
# [27] = biological target: Neu5Ac(a2-6)Gal(b1-4)GlcNAc(b1-2)Man
# Method in brief: as §1
# [28] = biological target: Neu5Ac(a2-6)Gal(b1-4)GlcNAc(b1-2)Man(a1-3)Man(b1-4)GlcNAc(b1-4)GlcNAc
# Method in brief: as §1
# [29] = biological target: Neu5Ac(a2-6)Gal(b1-4)GlcNAc(b1-2)Man(a1-3)[Gal(b1-4)GlcNAc(b1-2)Man(a1-6)]Man(b1-4)GlcNAc(b1-4)GlcNAc
# Method in brief: as §1
# [30] = biological target: Neu5Ac(a2-6)Gal(b1-4)GlcNAc(b1-2)Man(a1-3)[GlcNAc(b1-2)Man(a1-6)]Man(b1-4)GlcNAc(b1-4)GlcNAc
# Method in brief: as §1
# [31] = biological target: Neu5Ac(a2-6)Gal(b1-4)GlcNAc(b1-2)Man(a1-3)[GlcNAc(b1-4)][Neu5Ac(a2-6)Gal(b1-4)GlcNAc(b1-2)Man(a1-6)]Man(b1-4)GlcNAc(b1-4)GlcNAc
# Method in brief: as §1
# [32] = biological target: Neu5Ac(a2-6)Gal(b1-4)GlcNAc(b1-2)Man(a1-3)[Man(a1-6)]Man(b1-4)GlcNAc(b1-4)GlcNAc
# Method in brief: as §1
# [33] = biological target: Neu5Ac(a2-6)Gal(b1-4)GlcNAc(b1-2)Man(a1-3)[Neu5Ac(a2-3)Gal(b1-4)GlcNAc(b1-2)Man(a1-6)]Man(b1-4)GlcNAc(b1-4)GlcNAc
# Method in brief: as §1
# [34] = biological target: Neu5Ac(a2-6)Gal(b1-4)GlcNAc(b1-2)Man(a1-3)[Neu5Ac(a2-6)Gal(b1-4)GlcNAc(b1-2)Man(a1-6)]Man(b1-4)GlcNAc(b1-4)GlcNAc
# Method in brief: as §1
# [35] = biological target: Neu5Ac(a2-6)Gal(b1-4)GlcNAc(b1-2)Man(a1-3)[Neu5Ac(a2-6)Gal(b1-4)GlcNAc(b1-2)Man(a1-6)]Man(b1-4)GlcNAc(b1-4)[Fuc(a1-6)]GlcNAc
# Method in brief: as §1
# [36] = biological target: Neu5Ac(a2-6)Gal(b1-4)GlcNAc(b1-2)Man(a1-6)Man(b1-4)GlcNAc(b1-4)GlcNAc
# Method in brief: as §1
# [37] = biological target: Neu5Ac(a2-6)Gal(b1-4)GlcNAc(b1-2)Man(a1-6)[Gal(b1-4)GlcNAc(b1-2)Man(a1-3)]Man(b1-4)GlcNAc(b1-4)GlcNAc
# Method in brief: as §1
# [38] = biological target: Neu5Ac(a2-6)Gal(b1-4)GlcNAc(b1-2)Man(a1-6)[GlcNAc(b1-2)Man(a1-3)]Man(b1-4)GlcNAc(b1-4)GlcNAc
# Method in brief: as §1
# [39] = biological target: Neu5Ac(a2-6)Gal(b1-4)GlcNAc(b1-2)Man(a1-6)[Man(a1-3)]Man(b1-4)GlcNAc(b1-4)GlcNAc
# Method in brief: as §1
# [40] = biological target: Neu5Ac(a2-6)Gal(b1-4)GlcNAc(b1-2)[Neu5Ac(a2-6)Gal(b1-4)GlcNAc(b1-4)]Man(a1-3)[GlcNAc(b1-4)][Neu5Ac(a2-6)Gal(b1-4)GlcNAc(b1-2)[Neu5Ac(a2-6)Gal(b1-4)GlcNAc(b1-6)]Man(a1-6)]Man(b1-4)GlcNAc(b1-4)GlcNAc
# Method in brief: as §1
# [41] = biological target: Neu5Ac(a2-6)Gal(b1-4)GlcNAc(b1-2)[Neu5Ac(a2-6)Gal(b1-4)GlcNAc(b1-4)]Man(a1-3)[GlcNAc(b1-4)][Neu5Ac(a2-6)Gal(b1-4)GlcNAc(b1-4)Man(a1-6)]Man(b1-4)GlcNAc(b1-4)GlcNAc
# Method in brief: as §1
# [42] = biological target: Neu5Ac(a2-6)Gal(b1-4)GlcNAc(b1-2)[Neu5Ac(a2-6)Gal(b1-4)GlcNAc(b1-6)]Man(a1-6)[Neu5Ac(a2-6)Gal(b1-4)GlcNAc(b1-2)Man(a1-3)][GlcNAc(b1-4)]Man(b1-4)GlcNAc(b1-4)GlcNAc
# Method in brief: as §1
# [43] = biological target: Neu5Ac(a2-6)Gal(b1-4)GlcNAc(b1-3)Gal(b1-3)GlcNAc
# Method in brief: as §1
# [44] = biological target: Neu5Ac(a2-6)Gal(b1-4)GlcNAc(b1-3)Gal(b1-4)GlcNAc
# Method in brief: as §1
# [45] = biological target: Neu5Ac(a2-6)Gal(b1-4)GlcNAc(b1-3)Gal(b1-4)GlcNAc(b1-2)Man(a1-3)[Neu5Ac(a2-6)Gal(b1-4)GlcNAc(b1-3)Gal(b1-4)GlcNAc(b1-2)Man(a1-6)]GalNAc
# Method in brief: as §1
# [46] = biological target: Neu5Ac(a2-6)Gal(b1-4)GlcNAc(b1-3)Gal(b1-4)GlcNAc(b1-3)Gal(b1-4)GlcNAc
# Method in brief: as §1
binder,measurement,setting,value
B1,glycan array binding signal (z-score),[1],-0.263
same,glycan array binding signal (z-score),[2],-0.275
same,glycan array binding signal (z-score),[3],0.767
same,glycan array binding signal (z-score),[4],-0.19
same,glycan array binding signal (z-score),[5],-0.185
same,glycan array binding signal (z-score),[6],-0.298
same,glycan array binding signal (z-score),[7],-0.109
same,glycan array binding signal (z-score),[8],-0.063
same,glycan array binding signal (z-score),[9],0.019
same,glycan array binding signal (z-score),[10],-0.258
same,glycan array binding signal (z-score),[11],0.545
same,glycan array binding signal (z-score),[12],0.49
same,glycan array binding signal (z-score),[13],0.105
same,glycan array binding signal (z-score),[14],-0.175
same,glycan array binding signal (z-score),[15],-0.298
same,glycan array binding signal (z-score),[16],-0.236
same,glycan array binding signal (z-score),[17],-0.09
same,glycan array binding signal (z-score),[18],-0.332
same,glycan array binding signal (z-score),[19],-0.139
same,glycan array binding signal (z-score),[20],-0.174
same,glycan array binding signal (z-score),[21],-0.168
same,glycan array binding signal (z-score),[22],-0.342
same,glycan array binding signal (z-score),[23],-0.187
same,glycan array binding signal (z-score),[24],-0.145
same,glycan array binding signal (z-score),[25],-0.155
same,glycan array binding signal (z-score),[26],-0.156
same,glycan array binding signal (z-score),[27],-0.306
same,glycan array binding signal (z-score),[28],-0.228
same,glycan array binding signal (z-score),[29],-0.338
same,glycan array binding signal (z-score),[30],-0.238
same,glycan array binding signal (z-score),[31],-0.317
same,glycan array binding signal (z-score),[32],-0.221
same,glycan array binding signal (z-score),[33],-0.342
same,glycan array binding signal (z-score),[34],-0.154
same,glycan array binding signal (z-score),[35],-0.212
same,glycan array binding signal (z-score),[36],-0.164
same,glycan array binding signal (z-score),[37],-0.173
same,glycan array binding signal (z-score),[38],-0.196
same,glycan array binding signal (z-score),[39],-0.165
same,glycan array binding signal (z-score),[40],-0.31
same,glycan array binding signal (z-score),[41],-0.281
same,glycan array binding signal (z-score),[42],-0.236
same,glycan array binding signal (z-score),[43],-0.315
same,glycan array binding signal (z-score),[44],-0.404
same,glycan array binding signal (z-score),[45],-0.318
same,glycan array binding signal (z-score),[46],-0.307
